# Test results published in PubChem BioAssay AID1345082 (National Center for Advancing Translational Sciences (NCATS), 2018).
# The campaign covered roughly 94,000 compounds. About 4,000 (4.3%) were called active. Inconclusive results, whose numbers are uncertain, are shown with a selection of clear calls. Calls come from the whole dose curve; as a rule, active = well fitted inhibition curve with a large enough effect; inconclusive = small, poorly fitted or top-dose-only effect; inactive = no such curve, though single readings can be large or run the other way. Potencies beside an inconclusive call are fits to weak or partial responses and may not hold up.
# Assay: Cytotoxic Profiling in NIH 3T3 Cell Line of Diverse Libraries Using Quantitative High-Throughput Screening; note: nearly all actives have a fitted effect of over 55% in size
# Conditions: NIH 3T3 viability, CellTiter-Glo ATP luminescence, 48-72 h; activity change, negative = cytotoxicity: at 96.7 µM (top of the series) unless noted; series mostly up to 96.7 µM
# Outline: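 Viability of NIH 3T3 cells after 48 or 72 hr compound treatment at 37 °C was assessed by CellTiter-Glo, with luminescence imaged following a 10 min room-temperature step.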
# % is set by controls: 0 for no effect and ±100 for the full control effect; potency is the fitted concentration of half-maximal effect; tags give direction and shape of the fitted curve.
SMILES,Potency,"activity change, negative = cytotoxicity",outcome
COc1ccc(CN2CCNc3cnc(OCc4cccnc4)cc3C2)cc1O,"inconclusive: 56.2 µM [inhibitor, partial curve, poor fit]",–,–
COc1ccccc1N1CCN(C(=O)c2cc3n(n2)CC(c2ccc(Cl)cc2)OC3)CC1 (stereo not given),"inconclusive: 44.7 µM [inhibitor, partial curve, poor fit]",–,–
CC(C)c1nc2c(c(-c3ccc(O)cc3)n1)CCN(C(=O)c1cccc(Cl)c1)CC2,–,inactive: -26.3%,–
COc1cccc([S+](=O)([O-])N2CCn3c(nnc3-c3ccc(Cl)cc3)C2)c1,"inconclusive: 50.1 µM [inhibitor, partial curve, poor fit]",–,–
COc1ncccc1-c1cnc2[nH]cc(CC(=O)Nc3nc(C)cs3)c2c1,active: 31.6 µM,–,–
CNC(=O)N1CCC2(CC1)CC(N(Cc1ccc(F)cc1)C1CC1)CCO2 (stereo not given),–,inactive: -6.64%,–
COc1ccccc1-c1cc(C(=O)N(C)Cc2ccccc2)c2cnn(C)c2n1,"inconclusive: 56.2 µM [inhibitor, partial curve, poor fit]",–,–
CC(C)N1CCN(C(=O)C2CCN(c3cnn(Cc4ccccc4)c(=O)c3)C2)CC1 (stereo not given),–,inactive: -25.4%,–
COc1ccc(CN2CCc3nc(C(C)C)nc(-c4ccc(O)cc4)c3C2)cc1,"inconclusive: 70.8 µM [inhibitor, single point]",–,–
CC1CCN(C(=O)C2CCCCc3nnc(-c4ccccc4)n32)CC1 (stereo not given),–,inactive: 3.84%,–
O=C(CN1C(=O)NC2(CCCCC2)C1=O)N1CCCCC1,–,–,inactive
CC(C)CCN1CCC2(C1)C(=O)N(c1ccccc1)c1ccccc12 (stereo not given),"inconclusive: 56.2 µM [inhibitor, partial curve, poor fit]",–,–
CC1=C[C@@H](CN(C)CCO)[C@H](C(C)C)C[C@H]1Cc1nnc(-c2ccc(C)cc2)o1,"inconclusive: 56.2 µM [inhibitor, partial curve, poor fit]",–,–
COCCC(=O)N1C[C@@H](COc2cccnc2)[C@H](c2ccncc2)C1,–,inactive: -6.72%,–
CCCCCC(=O)N1CC(=O)N(Cc2c(OC)cccc2OC)CC(O)C1 (stereo not given),–,inactive: -25.9%,–
COc1ccccc1-c1nnc([C@H]2CCN(CC3CCCCC3)C2)o1,"inconclusive: 112 µM [inhibitor, partial curve]",–,–
CCOc1ccccc1NC(=O)N1CCC(N2CC(OCC3CC3)C23CCOCC3)CC1 (stereo not given),–,inactive: -12.4%,–
Cc1nc2cccnc2n1CC1CCCN(S(=O)(=O)c2cccc(Br)c2)C1 (stereo not given),"inconclusive: 35.5 µM [inhibitor, partial curve]",–,–
CCn1c2c(c(=O)n1-c1ccccc1)CCN(C(=O)C1CCC1)C2,"inconclusive: 100 µM [inhibitor, single point]",–,–
O=C(Nc1ncc(-c2cccc(F)c2)c2c1OCC2)c1c[nH]c2ccccc12,active: 39.8 µM,–,–
Cc1cccc(OCC2(CNC(=O)c3ccc(F)cc3)C[C@@H](O)[C@@H](O)C2)n1 (stereo not given in full),–,inactive: 4.48% [at 138 µM],–
CNC(=O)c1cc(C2CC2)nc2onc(C3CCN(C(=O)c4ccc(C(F)(F)F)cc4)C3)c12 (stereo not given),"inconclusive: 39.8 µM [inhibitor, partial curve]",–,–

SMILES,Potency,"activity change, negative = cytotoxicity",outcome
N#Cc1ccc(CN2CCCC(c3nccn3Cc3ccccc3)C2)cc1 (stereo not given),"inconclusive: 31.6 µM [inhibitor, full curve]",–,–
O=c1cc(N2CCOCC2)oc2c(NCc3cnccn3)nccc12,active: 100 µM,–,–
Cc1noc(C)c1[S+](=O)([O-])NC1CCN(C(=O)c2ccc(-c3ncccc3C#N)cc2)CC1,"inconclusive: 79.4 µM [inhibitor, partial curve, poor fit]",–,–
O=C(COc1ccc(F)cc1)N1CCC(c2n[nH]c(=O)n2-c2ccccc2)CC1,"inconclusive: 44.7 µM [inhibitor, partial curve, poor fit]",–,–
OC[C@@H]1CN(Cc2ccccc2)C[C@H]1c1nc(-c2ccncc2)no1,"inconclusive: 31.6 µM [inhibitor, partial curve, poor fit]",–,–
O=C(CN1C(=O)NC(c2ccc(Cl)cc2)C2=C1COC2=O)NCc1ccccc1Cl (stereo not given),"inconclusive: 44.7 µM [inhibitor, partial curve, poor fit]",–,–
O=C(NCCc1ccc(Cl)cc1)c1nc(-c2ccc(Cl)nc2)c2ccccn12,–,inactive: -19.5%,–
COc1ccc2ccc(OCc3nc(C(=O)N4CCCC(C(N)=O)C4)co3)cc2c1 (stereo not given),"inconclusive: 11.2 µM [inhibitor, full curve]",–,–
O=C(c1cc(C2CC2)nc2onc(C3CCCN3)c12)N1CCC(F)CC1 (stereo not given),"inconclusive: 15.8 µM [inhibitor, full curve, poor fit]",–,–
CC(=O)Nc1ccc(CN2C(=O)OC3(CCN(C(=O)COc4ccccc4)CC3)C2(C)c2ccccc2)cc1 (stereo not given),"inconclusive: 70.8 µM [inhibitor, partial curve, poor fit]",–,–
O=C(C[C@@H]1CCNC[C@@H]1Cc1cc(-c2ccccc2)on1)N1CCc2ccccc2C1,active: 31.6 µM,–,–
O=C(NC1CCCN(c2cc(-c3ccc(F)cc3)[nH]n2)C1)c1cc(Cl)ccc1F (stereo not given),"inconclusive: 35.5 µM [inhibitor, partial curve, poor fit]",–,–
CCOc1ccccc1NC(=O)C1c2ccccc2C(=O)N(CCOC)C12CCCCC2 (stereo not given),"inconclusive: 79.4 µM [inhibitor, partial curve, poor fit]",–,–
Cn1ncc2c(C(=O)NCc3cccc(Cl)c3)cc(-c3cccc(C(F)(F)F)c3)nc21,"inconclusive: 7.94 µM [inhibitor, partial curve, poor fit]",–,–
CN(C(=O)c1ccccc1)C1CCc2ccccc21 (stereo not given),–,inactive: -22.7% [at 138 µM],–
COc1ccccc1-c1cccc(CN2CCC(NC(=O)C3CCCC3)CC2)c1,"inconclusive: 50.1 µM [inhibitor, partial curve, poor fit]",–,–
CNC(=O)c1cc(C2CC2)nc2c1c(C1CCCN1C(=O)c1ccc(OC)cc1)nn2C (stereo not given),–,inactive: -16%,–
COc1cccc(CN2C(=O)OC3(CCN(Cc4ccc(F)cc4)CC3)C2(C)c2cccnc2)c1 (stereo not given),"inconclusive: 50.1 µM [inhibitor, partial curve, poor fit]",–,–
CN(C)c1ccc(C(=O)NC2CCN(c3cc(-c4ccc(F)cc4)[nH]n3)C2)cc1 (stereo not given),"inconclusive: 50.1 µM [inhibitor, partial curve, poor fit]",–,–
O=C(CCC[C@H]1NC[C@@H]2C[C@H]1CN(Cc1ccccc1)C2)NCCCN1CCCc2ccccc21,–,inactive: -2.77%,–
CCC1Oc2ccc(NC(=O)Cc3cccc(OC)c3)cc2CN(Cc2ccc3c(c2)OCO3)C1=O (stereo not given),"inconclusive: 15.8 µM [inhibitor, full curve]",–,–
CC(C)(C)OC(=O)N1CC(Nc2ccc(Oc3ccccc3)cc2)C1,"inconclusive: 50.1 µM [inhibitor, partial curve, poor fit]",–,–

SMILES,Potency,"activity change, negative = cytotoxicity",outcome
O=S(=O)(c1cccc(F)c1)N1CCC(OC2CCN(Cc3ccccc3)CC2)CC1,–,inactive: -25.7%,–
CCC1Oc2ccc(NC(=O)c3ccc([N+](=O)[O-])cc3)cc2CN(Cc2ccccc2)C1=O (stereo not given),–,inactive: -23.6%,–
CC(C)c1noc(-c2cccn3c(CNC(=O)c4cccc(F)c4)nnc23)n1,–,inactive: 0.768%,–
Cc1nc2cnccn2c1C(=O)NCc1ccc(F)cc1,"inconclusive: 89.1 µM [inhibitor, partial curve, poor fit]",–,–
COc1cccc(NC(=O)c2ccc3c(c2)N(C)C2CCCCCN2C3=O)c1 (stereo not given),"inconclusive: 44.7 µM [inhibitor, partial curve, poor fit]",–,–
CN(C)C(=O)C1CCc2nnc(C3CCN(C(=O)c4ccc(Cl)cc4Cl)CC3)n21 (stereo not given),–,–,inactive
CCN(CC)C(=O)CCc1c(C)nn(-c2ccc(F)cc2)c1Oc1ccccc1,"inconclusive: 44.7 µM [inhibitor, partial curve, poor fit]",–,–
Cc1[nH]cnc1C(=O)N1CCOc2c(O)cc(-c3csc4ccccc34)cc2C1,active: 79.4 µM,–,–
O=C1c2c(nc(COc3ccc(Cl)cc3)n2Cc2ccccc2)NCCN1CCOc1ccccc1,"inconclusive: 28.2 µM [inhibitor, partial curve, poor fit]",–,–
O=C(c1nc(-c2cccc(C(F)(F)F)c2)c2ccccn12)N1CCOCC1,"inconclusive: 50.1 µM [inhibitor, partial curve, poor fit]",–,–
Clc1cc(NCCC2CCCCC2)n2nccc2n1,"inconclusive: 28.2 µM [inhibitor, full curve]",–,–
COc1ccc(-c2cccc(C(=O)N3CCC(Cc4ccccc4)CC3)c2)nn1,"inconclusive: 50.1 µM [inhibitor, partial curve, poor fit]",–,–
CCOc1cc(=O)n2c(c1C(=O)NCc1ccccn1)CCCCC2,"inconclusive: 70.8 µM [inhibitor, single point]",–,–
COc1ccc(C(=O)N2CCCN(C)c3ccccc32)cc1,–,inactive: -32.1%,–
Cc1noc(C)c1-c1cc2c(c(-c3ccccc3F)c1)C(=O)N(C)C2,"inconclusive: 11.2 µM [inhibitor, full curve, poor fit]",–,–
CC(C)c1ccc(N2CC(C(=O)N(C)C3CCSCC3)CC2=O)cc1 (stereo not given),–,inactive: -4.18%,–
O=C(c1ccc(Cl)nc1)N1CCC(C(=O)N2CCC(c3ccccc3)CC2)CC1,"inconclusive: 50.1 µM [inhibitor, partial curve, poor fit]",–,–
O=C(NCC1Cn2cccc2CN1Cc1ccccc1)c1ccco1 (stereo not given),"inconclusive: 70.8 µM [inhibitor, single point]",–,–
CCNC(=O)N1CCC(Cc2ccc(C(N)=O)cc2)CC1,–,inactive: 3.18%,–
CCC(C)Nc1ccc2nncn2n1 (stereo not given),–,inactive: -5.74%,–
O=C(Nc1ccc(Cl)cc1)N1CCC(C(=O)N2CCC(c3nc4ncccc4[nH]3)CC2)C1 (stereo not given),"inconclusive: 70.8 µM [inhibitor, single point]",–,–
